{
  "source": "patent US6649595B2",
  "about": "“Regulation of biological events using novel compounds” (ARIAD Gene Therapeutics, Inc., priority 1995, dated 2003)",
  "key": {"[1]": {"system": "stably transfected HT1080 clone (SEAP target gene, ZFHD1-3FKBP, 1FRB-p65)", "conditions": "100 nM rapamycin; SEAP assay length increased about 50-fold"}, "[2]": {"system": "HT1080 cells transfected with ZFHD1-3FKBP, 1FRB-p65 and SEAP reporter gene", "experiment": "Rapamycin-dependent SEAP transcriptional activation in transiently transfected cells", "format": "cell-based, human", "conditions": "transient transfection", "excerpt": "See WO 96/41865, FIG. 4A.\nBackground SEAP activity, measured from mock-transfected cells, was subtracted from each value."}},
  "data": [
    {"compound": "CO[C@H]1C[C@@H]2CC[C@@H](C)[C@@](O)(O2)C(=O)C(=O)N2CCCC[C@H]2C(=O)O[C@H]([C@H](C)C[C@@H]2CC[C@@H](O)[C@H](OC)C2)CC(=O)[C@H](C)/C=C(\\C)[C@@H](O)[C@@H](OC)C(=O)[C@H](C)C[C@H](C)/C=C/C=C/C=C/1C", "note": "[rapamycin, Rapamycin]", "values": [
      {"measurement": "SEAP production", "setting": "[1]", "result": "over 90,000 arbitrary fluorescence units"},
      {"measurement": "enhancement of SEAP over background levels in the absence of rapamycin", "setting": "[2]", "result": "≥ 1000", "unit": "fold"}
    ]}
  ]
}
